What all share (experiment): split reporter; BiFC with NtGFP and CtGFP fragments of EGFP fused at the N- or C-terminus of each protein; co-agroinfiltration of N. benthamiana leaves (OD600 0.4, mixed in equal proportions); confocal microscopy
Assay [1] concerns the target T1, N. tabacum peroxidase, BiFC fusion (N. tabacum).
T1 sequence: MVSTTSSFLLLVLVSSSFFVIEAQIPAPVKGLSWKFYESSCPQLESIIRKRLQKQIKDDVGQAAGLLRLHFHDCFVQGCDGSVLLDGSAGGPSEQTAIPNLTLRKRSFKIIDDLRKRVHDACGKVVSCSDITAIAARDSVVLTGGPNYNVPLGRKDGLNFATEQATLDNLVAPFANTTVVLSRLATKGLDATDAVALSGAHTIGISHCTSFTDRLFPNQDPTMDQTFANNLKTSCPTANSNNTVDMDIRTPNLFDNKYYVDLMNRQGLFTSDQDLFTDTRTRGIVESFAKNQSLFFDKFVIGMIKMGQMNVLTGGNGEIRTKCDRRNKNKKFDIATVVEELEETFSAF

Protein sequences, listed by entry. Tags and fused reporters are not part of them.
UniProt P03545: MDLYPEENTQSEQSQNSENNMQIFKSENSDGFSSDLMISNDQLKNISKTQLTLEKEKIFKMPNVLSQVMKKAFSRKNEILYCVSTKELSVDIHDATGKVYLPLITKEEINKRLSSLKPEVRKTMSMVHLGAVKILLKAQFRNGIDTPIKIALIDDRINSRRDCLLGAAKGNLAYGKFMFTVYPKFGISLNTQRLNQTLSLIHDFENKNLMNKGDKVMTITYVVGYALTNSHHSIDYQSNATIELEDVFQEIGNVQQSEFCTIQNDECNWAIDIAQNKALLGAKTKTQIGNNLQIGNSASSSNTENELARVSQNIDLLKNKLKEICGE
UniProt Q00271: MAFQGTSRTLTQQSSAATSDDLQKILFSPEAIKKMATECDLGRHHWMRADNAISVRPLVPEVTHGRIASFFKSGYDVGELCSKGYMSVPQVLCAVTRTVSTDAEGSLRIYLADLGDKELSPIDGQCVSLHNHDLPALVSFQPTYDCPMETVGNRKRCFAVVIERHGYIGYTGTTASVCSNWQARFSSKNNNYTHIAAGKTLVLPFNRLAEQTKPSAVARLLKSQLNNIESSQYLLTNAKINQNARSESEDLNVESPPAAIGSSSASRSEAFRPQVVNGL

The target in assay [2] is cauliflower mosaic virus (CaMV) movement protein, BiFC fusion (cauliflower mosaic virus) (UniProt P03545).
Assay [3] has as its target cucumber mosaic virus (CMV) movement protein, BiFC fusion (cucumber mosaic virus) (UniProt Q00271).

No constants are given. Whether binding was seen depends on the method and setting. In cells and extracts the contact can be indirect. Some results given as binding are weak or reduced against the parent protein; the word gives no strength. Where a sequence is shown, tags or fusion partners need not be part of it.

B1: N. tabacum 14-3-3A protein, BiFC fusion (protein, UniProt A0ABD8EQ38 1-255)
chain: MASPREENVYLAKLAEQAERYEEMVEFMEKVVGAGDDELTVEERNLLSVAYKNVIGARRASWRIISSIEQKEESRGNEDHVASIKTYRSKIESELTSICNGILKLLDSKLIGTAATGDSKVFYLKMKGDYYRYLAEFKTGAERKEAAENTLSAYKSAQDIANVELAPTHPIRLGLALNFSVFYYEILNSPDRACNLAKQAFDEAIAELDTLGEESYKDSTLIMQLLRDNLTLWTSDMQDDGTDEIKEPSKAEEQQ
On to B1, for which the binding entry in assay [1] was “binds”; in assay [2] it was “no binding”; in assay [3], “binds”.

For the origin of these results see publication PMC11595209.
